Experimental data reported in the supplement of paper PMC12217912.
Some of the results follow. Sequences were assembled here from the parent chain. Inactive controls read about 0.05.

B1: TEV protease; numbered along this chain (parent)
chain: MGESLFKGPRDYNPISSSICHLTNESDGHTTSLYGIGFGPFIITNKHLFRRNNGTLVVQSLHGVFKVKDTTTLQQHLVDGRDMIIIRMPKDFPPFPQKLKFREPQREERICLVTTNFQTKSMSSMVSDTSCTFPSGDGIFWKHWIQTKDGQCGSPLVSTRDGFIVGIHSASNFTNTNNYFTSVPKNFMELLTNQEAQQWVSGWRLNADSVLWGGHKVFMVKPEEPFQPVKEATQL

Variants of: B1
Assay: raw area under fraction-flipped curve 0-4 h after induction (AUC4h, not background-subtracted), DNA-recorder readout of cleavage of the substrate (dimensionless); higher = more cleavage of the substrate by the protease variant
Details: temperature: 34 °C; time window: 0-4 h after rhamnose induction
Procedure: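 In vivo DNA recorder in E. coli TOP10(DE3) ΔrhaA at 34 °C. Each TEVp single-site mutant (parent TEVp 0) is paired with a single-site variant of the 7-mer TEVs (canonical ENLYFQ|S). The substrate sits between flexible linkers in a Bxb1-sfGFP-TEVs-SsrA fusion, so cleavage stabilises Bxb1 and speeds flipping of a recombination array, read by NGS. The value is the raw area under the fraction-flipped curve over 0-4 h after rhamnose induction (AUC4h), with ≥20 reads per time point. It is not background-subtracted; inactive controls average about 0.047.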
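Note: Bxb1 expression induced with 0.2% (w/v) L-rhamnose at OD600 near 0.5, cultures sampled hourly, flipped fraction per protease–substrate barcode pair counted by paired-end Illumina sequencing.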

Variant	area with substrate ANLYFQS	area with substrate CNLYFQS	area with substrate DNLYFQS	area with substrate FNLYFQS	area with substrate GNLYFQS	area with substrate HNLYFQS	area with substrate INLYFQS	area with substrate KNLYFQS	area with substrate LNLYFQS	area with substrate MNLYFQS	area with substrate PNLYFQS	area with substrate SNLYFQS	area with substrate TNLYFQS	area with substrate VNLYFQS	area with substrate WNLYFQS	area with substrate YNLYFQS	area with substrate QNLYFQS	area with substrate NNLYFQS	area with substrate RNLYFQS
V157F	0.0565	0.0504	0.0562	0.0576	0.048	0.0479	0.0529	0.0536	0.0622	0.0551	0.0514	0.0498	0.0648	0.0601	0.0595	0.0546	–	–	–
C152I	0.0649	0.0519	0.0564	0.0548	0.0749	0.0521	0.0809	0.0738	0.0795	0.0588	0.0669	0.0642	0.0517	0.069	0.0517	0.0451	0.0591	–	–
C152G	0.0536	0.0625	0.0631	0.0571	0.0677	0.0601	0.0562	0.0729	0.056	0.0637	0.0618	–	0.0691	0.0502	0.0573	0.0518	–	0.0628	–
C152E	0.0579	0.0465	0.0614	0.0566	0.061	0.0542	0.0466	0.078	0.0645	–	0.0528	0.0601	0.0633	0.0487	0.0668	0.0514	0.0568	0.0593	0.061
C152V	0.0543	0.0624	0.0544	0.0592	0.0728	0.0549	0.0563	0.0562	0.0538	–	0.0573	–	0.0591	–	0.0655	0.044	–	–	–
C152W	0.0496	0.0586	0.0475	0.058	–	0.0563	0.062	0.0673	0.0489	–	0.0522	0.0428	0.0598	0.0614	0.0507	0.0397	–	–	–
C152L	0.059	0.0521	0.0461	–	0.057	0.0496	–	–	0.0525	0.0649	0.0629	–	–	–	0.0567	–	–	0.0512	–
C152A	0.0599	0.0727	0.0248	0.0426	0.0538	0.0635	–	0.0282	–	–	0.0558	0.0528	0.0646	0.064	–	0.0517	–	0.0348	–
D149M	0.0532	0.0717	0.0725	0.0861	–	0.0606	0.0791	–	0.0538	0.0376	0.0611	0.0655	0.0565	0.0597	0.0568	0.0527	0.0638	–	–
F140R	0.0796	0.0579	0.0701	0.0388	0.0591	0.0599	0.0577	0.066	0.0662	0.0663	0.0666	0.0591	0.0748	0.0602	0.0517	0.0585	–	0.0665	0.0629
P96N	0.0651	0.0745	0.123	–	–	0.066	0.0591	0.0606	–	0.0646	0.067	0.0591	0.0609	–	0.05	0.0567	–	0.0589	0.0728
K148A	0.0859	0.0728	0.0702	0.0689	–	0.0568	0.067	–	0.0765	0.065	0.0677	0.0577	0.0611	–	0.0574	0.0638	–	0.0612	0.0545
D128F	0.0995	–	–	–	–	0.0813	–	0.0925	0.0575	0.071	0.1	0.0818	0.0716	–	0.0608	0.0936	–	0.0923	–
D128C	0.0723	0.0864	0.101	0.061	0.12	0.0815	0.0521	0.0617	0.0633	0.013	0.0568	0.0899	0.0784	0.0841	0.058	0.0487	–	0.0635	–
D128M	0.078	0.0864	0.0407	–	0.0947	0.0838	0.0892	0.0675	0.0873	0.0537	0.0799	0.0831	0.0907	0.076	0.0441	0.0729	–	0.115	–
D128K	0.0457	–	0.0857	0.0486	0.0679	0.0416	–	–	–	0.0646	0.0669	–	–	–	–	–	–	0.0439	–
L112I	0.0318	0.0446	–	0.0386	–	0.0617	0.0584	0.0415	0.0452	0.0874	0.0861	0.0495	0.0666	0.0667	0.0586	0.0702	–	0.0896	0.0599
L112F	0.0623	0.061	0.0701	–	–	0.0644	0.0599	–	0.0442	–	–	0.0513	0.0542	–	0.0612	0.0567	–	–	–
L112C	0.0617	0.0454	0.0762	0.0629	0.0683	0.0466	–	0.0885	0.0714	–	0.0665	0.0617	0.0531	–	0.0576	0.0659	–	0.0691	–
L112W	0.0502	0.0318	–	0.0663	0.0418	0.0623	0.0558	0.0672	0.045	–	0.0564	–	0.0631	0.067	0.0502	–	–	0.0596	–
L112N	0.0642	0.0832	–	0.0472	0.0634	0.0566	–	–	0.0592	0.0584	0.0611	0.0661	0.0663	0.0749	0.0602	0.0529	–	–	–
L112H	0.0573	0.0652	–	0.0598	0.0511	0.0519	0.0521	0.0648	0.0599	–	0.0569	–	0.06	0.076	0.0625	0.0445	–	0.0579	0.0467
E103G	0.0075	0.0693	0.0874	0.0612	0.074	0.0644	0.0661	0.073	–	0.0658	0.0549	–	0.0707	–	0.0588	0.06	0.0663	0.0637	–
K120H	0.0736	–	0.0867	–	0.0665	–	–	–	0.0481	0.0652	–	0.0679	–	–	–	–	0.0643	–	–
G162C	0.0484	0.0521	0.0891	0.0919	0.0645	0.0622	0.0608	0.0653	0.056	0.0689	0.0659	0.0631	0.0742	0.0758	0.0593	0.0606	0.0435	–	–
